# Results: the supplement of paper PMC8728848
# The list shows a part of the results.
# B1: LBL-152 (Laetiporus bicolor), B0D650 (protein)
# chain: MSNEYNPPLGIAFRLCGLASDRVLFSRVSPSPEVFHHPKSEVYPDQWFVAIPGSGQNAGCYAIKSKNTGKVLFSRMSPDPRVGHIDGDGKYPDNWFKFEAGSGKYAGYFRLRAVASDTVLVSRTSTGTDTQVINYPATSAKYDDQYFTILFDHHHHHH
# Columns and labels:
# Experiment in all cases: glycan array binding signal (z-score within array); higher = stronger binding
# Conditions in all cases: glycan notation: IUPAC condensed, linker removed
# [1] = target: Fuc(a1-2)Gal6S(b1-3)GlcNAc
# In short: (§1)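 The binding signal is a Z-score computed within each array. Data were drawn from 3228 arrays in the Consortium for Functional Glycomics database, restricted to those with a known protein sequence. Scores were averaged over arrays of the same protein sequence at different concentrations or buffers, and over linkers, and negative values can be taken as non-binding.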
# [2] = target: Fuc(a1-2)Gal6S(b1-3)GlcNAc6S
# In short: as §1
# Fuc(a1-2)Gal6S(b1-4)Glc = target: Fuc(a1-2)Gal6S(b1-4)Glc
# In short: as §1
# [3] = target: Fuc(a1-2)Gal6S(b1-4)Glc6S
# In short: as §1
# Fuc(a1-2)[Gal(a1-3)]Gal = target: Fuc(a1-2)[Gal(a1-3)]Gal
# In short: as §1
# [4] = target: Fuc(a1-2)[Gal(a1-3)]Gal(b1-3)GalNAc
# In short: as §1
# [5] = target: Fuc(a1-2)[Gal(a1-3)]Gal(b1-3)GalNAc(b1-3)Gal(a1-4)Gal(b1-4)Glc
# In short: as §1
# [6] = target: Fuc(a1-2)[Gal(a1-3)]Gal(b1-3)GlcNAc
# In short: as §1
# [7] = target: Fuc(a1-2)[Gal(a1-3)]Gal(b1-3)GlcNAc(b1-2)Man(a1-3)[Fuc(a1-2)[Gal(a1-3)]Gal(b1-3)GlcNAc(b1-2)Man(a1-6)]Man(b1-4)GlcNAc(b1-4)GlcNAc
# In short: as §1
# [8] = target: Fuc(a1-2)[Gal(a1-3)]Gal(b1-3)GlcNAc(b1-2)Man(a1-3)[Fuc(a1-2)[Gal(a1-3)]Gal(b1-3)GlcNAc(b1-2)Man(a1-6)]Man(b1-4)GlcNAc(b1-4)[Fuc(a1-6)]GlcNAc
# In short: as §1
# [9] = target: Fuc(a1-2)[Gal(a1-3)]Gal(b1-3)GlcNAc(b1-3)GalNAc
# In short: as §1
# [10] = target: Fuc(a1-2)[Gal(a1-3)]Gal(b1-3)GlcNAc(b1-6)GalNAc
# In short: as §1
# [11] = target: Fuc(a1-2)[Gal(a1-3)]Gal(b1-4)Glc
# In short: as §1
# [12] = target: Fuc(a1-2)[Gal(a1-3)]Gal(b1-4)GlcNAc
# In short: as §1
# [13] = target: Fuc(a1-2)[Gal(a1-3)]Gal(b1-4)GlcNAc(b1-2)Man
# In short: as §1
# [14] = target: Fuc(a1-2)[Gal(a1-3)]Gal(b1-4)GlcNAc(b1-2)Man(a1-3)[Fuc(a1-2)[Gal(a1-3)]Gal(b1-4)GlcNAc(b1-2)Man(a1-6)]Man(b1-4)GlcNAc(b1-4)GlcNAc
# In short: as §1
# [15] = target: Fuc(a1-2)[Gal(a1-3)]Gal(b1-4)GlcNAc(b1-2)Man(a1-3)[Fuc(a1-2)[Gal(a1-3)]Gal(b1-4)GlcNAc(b1-2)Man(a1-6)]Man(b1-4)GlcNAc(b1-4)[Fuc(a1-6)]GlcNAc
# In short: as §1
# [16] = target: Fuc(a1-2)[Gal(a1-3)]Gal(b1-4)GlcNAc(b1-3)GalNAc
# In short: as §1
# [17] = target: Fuc(a1-2)[Gal(a1-3)]Gal(b1-4)GlcNAc(b1-3)[Fuc(a1-2)[Gal(a1-3)]Gal(b1-4)GlcNAc(b1-6)]GalNAc
# In short: as §1
# [18] = target: Fuc(a1-2)[Gal(a1-3)]Gal(b1-4)GlcNAc(b1-6)GalNAc
# In short: as §1
# [19] = target: Fuc(a1-2)[Gal(a1-3)]Gal(b1-4)[Fuc(a1-3)]Glc
# In short: as §1
# [20] = target: Fuc(a1-2)[Gal(a1-3)]Gal(b1-4)[Fuc(a1-3)]GlcNAc
# In short: as §1
# [21] = target: Fuc(a1-2)[Gal(a1-3)]Gal(b1-4)[Fuc(a1-3)]GlcNAc(b1-3)GalNAc
# In short: as §1
# [22] = target: Fuc(a1-2)[Gal(a1-4)]Gal(b1-4)GlcNAc
# In short: as §1
# [23] = target: Fuc(a1-2)[GalNAc(a1-3)]Gal
# In short: as §1
# [24] = target: Fuc(a1-2)[GalNAc(a1-3)]Gal(b1-3)GalNAc(a1-3)[Fuc(a1-2)]Gal(b1-4)GlcNAc
# In short: as §1
# [25] = target: Fuc(a1-2)[GalNAc(a1-3)]Gal(b1-3)GalNAc(b1-3)Gal(a1-4)Gal(b1-4)Glc
# In short: as §1
# [26] = target: Fuc(a1-2)[GalNAc(a1-3)]Gal(b1-3)GlcNAc
# In short: as §1
# [27] = target: Fuc(a1-2)[GalNAc(a1-3)]Gal(b1-3)GlcNAc(b1-2)Man(a1-3)[Fuc(a1-2)[GalNAc(a1-3)]Gal(b1-3)GlcNAc(b1-2)Man(a1-6)]Man(b1-4)GlcNAc(b1-4)GlcNAc
# In short: as §1
# [28] = target: Fuc(a1-2)[GalNAc(a1-3)]Gal(b1-3)GlcNAc(b1-2)Man(a1-3)[Fuc(a1-2)[GalNAc(a1-3)]Gal(b1-3)GlcNAc(b1-2)Man(a1-6)]Man(b1-4)GlcNAc(b1-4)[Fuc(a1-6)]GlcNAc
# In short: as §1
# [29] = target: Fuc(a1-2)[GalNAc(a1-3)]Gal(b1-3)GlcNAc(b1-3)GalNAc
# In short: as §1
# [30] = target: Fuc(a1-2)[GalNAc(a1-3)]Gal(b1-3)GlcNAc(b1-6)GalNAc
# In short: as §1
# [31] = target: Fuc(a1-2)[GalNAc(a1-3)]Gal(b1-4)Glc
# In short: as §1
# [32] = target: Fuc(a1-2)[GalNAc(a1-3)]Gal(b1-4)GlcNAc
# In short: as §1
# [33] = target: Fuc(a1-2)[GalNAc(a1-3)]Gal(b1-4)GlcNAc(b1-2)Man
# In short: as §1
# [34] = target: Fuc(a1-2)[GalNAc(a1-3)]Gal(b1-4)GlcNAc(b1-2)Man(a1-3)[Fuc(a1-2)[GalNAc(a1-3)]Gal(b1-4)GlcNAc(b1-2)Man(a1-6)]Man(b1-4)GlcNAc(b1-4)GlcNAc
# In short: as §1
# [35] = target: Fuc(a1-2)[GalNAc(a1-3)]Gal(b1-4)GlcNAc(b1-2)Man(a1-3)[Fuc(a1-2)[GalNAc(a1-3)]Gal(b1-4)GlcNAc(b1-2)Man(a1-6)]Man(b1-4)GlcNAc(b1-4)[Fuc(a1-6)]GlcNAc
# In short: as §1
# [36] = target: Fuc(a1-2)[GalNAc(a1-3)]Gal(b1-4)GlcNAc(b1-3)Gal(b1-4)GlcNAc
# In short: as §1
# [37] = target: Fuc(a1-2)[GalNAc(a1-3)]Gal(b1-4)GlcNAc(b1-3)Gal(b1-4)GlcNAc(b1-3)Gal(b1-4)GlcNAc
# In short: as §1
# [38] = target: Fuc(a1-2)[GalNAc(a1-3)]Gal(b1-4)GlcNAc(b1-3)GalNAc
# In short: as §1
# [39] = target: Fuc(a1-2)[GalNAc(a1-3)]Gal(b1-4)GlcNAc(b1-3)[Fuc(a1-2)[GalNAc(a1-3)]Gal(b1-4)GlcNAc(b1-6)]GalNAc
# In short: as §1
# [40] = target: Fuc(a1-2)[GalNAc(a1-3)]Gal(b1-4)GlcNAc(b1-6)GalNAc
# In short: as §1
# [41] = target: Fuc(a1-2)[GalNAc(a1-3)]Gal(b1-4)[Fuc(a1-3)]GlcNAc
# In short: as §1
# [42] = target: Fuc(a1-2)[GalNAc(a1-3)]Gal(b1-4)[Fuc(a1-3)]GlcNAc(b1-3)GalNAc
# In short: as §1
# [43] = target: Fuc(a1-2)[GalNAc(a1-4)]Gal(b1-4)GlcNAc
# In short: as §1
binder,measurement,setting,value
B1,glycan array binding signal (z-score),[1],-0.153
same,glycan array binding signal (z-score),[2],-0.15
same,glycan array binding signal (z-score),Fuc(a1-2)Gal6S(b1-4)Glc,-0.146
same,glycan array binding signal (z-score),[3],-0.158
same,glycan array binding signal (z-score),Fuc(a1-2)[Gal(a1-3)]Gal,-0.145
same,glycan array binding signal (z-score),[4],-0.146
same,glycan array binding signal (z-score),[5],-0.154
same,glycan array binding signal (z-score),[6],-0.153
same,glycan array binding signal (z-score),[7],-0.149
same,glycan array binding signal (z-score),[8],-0.155
same,glycan array binding signal (z-score),[9],-0.155
same,glycan array binding signal (z-score),[10],-0.156
same,glycan array binding signal (z-score),[11],-0.157
same,glycan array binding signal (z-score),[12],-0.152
same,glycan array binding signal (z-score),[13],-0.153
same,glycan array binding signal (z-score),[14],-0.147
same,glycan array binding signal (z-score),[15],-0.151
same,glycan array binding signal (z-score),[16],-0.157
same,glycan array binding signal (z-score),[17],-0.152
same,glycan array binding signal (z-score),[18],-0.151
same,glycan array binding signal (z-score),[19],-0.153
same,glycan array binding signal (z-score),[20],-0.155
same,glycan array binding signal (z-score),[21],-0.151
same,glycan array binding signal (z-score),[22],-0.136
same,glycan array binding signal (z-score),[23],-0.151
same,glycan array binding signal (z-score),[24],-0.159
same,glycan array binding signal (z-score),[25],-0.157
same,glycan array binding signal (z-score),[26],-0.161
same,glycan array binding signal (z-score),[27],-0.156
same,glycan array binding signal (z-score),[28],-0.157
same,glycan array binding signal (z-score),[29],-0.15
same,glycan array binding signal (z-score),[30],-0.157
same,glycan array binding signal (z-score),[31],-0.157
same,glycan array binding signal (z-score),[32],-0.156
same,glycan array binding signal (z-score),[33],-0.156
same,glycan array binding signal (z-score),[34],-0.156
same,glycan array binding signal (z-score),[35],-0.156
same,glycan array binding signal (z-score),[36],-0.157
same,glycan array binding signal (z-score),[37],-0.078
same,glycan array binding signal (z-score),[38],-0.155
same,glycan array binding signal (z-score),[39],-0.155
same,glycan array binding signal (z-score),[40],-0.16
same,glycan array binding signal (z-score),[41],-0.153
same,glycan array binding signal (z-score),[42],-0.149
same,glycan array binding signal (z-score),[43],-0.156
